Results reported in the supplement of paper PMC10132981, “Formate overflow drives toxic folate trapping in MTHFD1 inhibited cancer cells” (Nature Metabolism, 2023).
The source gives many values for each of these; only a part stands here.

What was measured:
[1] = tested on: SW620; experiment: cell viability relative to lowest-dose well (resazurin, 96 h); higher = more viable; conditions: RPMI + 10% FBS
Summary of the method: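 Viability values are expressed as percent of the lowest-dose well, using independent replicate cultures. HCT116 cells at 500 cells/well or SW620 cells at 1,000 cells/well were plated in 384-well plates in 50 µl RPMI containing 10% FBS and a metabolite supplement, then given compound dilution series dispensed from 10 mM DMSO stocks. After 96 h at 37 °C and 5% CO2, resazurin (10 µg ml^−1) conversion to resorufin was read by fluorescence at 595 nm after 5 h.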

[2] = tested on: SW620; experiment: cell viability relative to vehicle (resazurin, 96 h); higher = more viable; conditions: base medium: RPMI + dialysed FBS
Description: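 SW620 WT or MTHFD2-/- cells were treated for 96 h with a compound dilution series (log10 M) in RPMI with normal or dialysed FBS. Viability was read by resazurin and is given as % of vehicle.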

O=c1[nH]cc(F)c(=O)[nH]1 [5-fluorouracil]
cell viability [%], [1]
Conditions	0.01 µM	0.0278 µM	0.0774 µM	0.215 µM	0.599 µM
metabolite supplement: 50uM thymidine	103	–	–	–	89.6
metabolite supplement: 50uM thymidine + 250uM folic acid	104	101	102	101	–
metabolite supplement: 250uM folic acid	99.9	100.3	100	98.4	96.733
metabolite supplement: vehicle	102	–	–	–	–

CN(Cc1cnc2nc(N)nc(N)c2n1)c1ccc(C(=O)N[C@@H](CCC(=O)O)C(=O)O)cc1 [methotrexate]
[2]
Conditions	cell viability [%]
log10 compound concentration (M): -5, supplement / serum: 50 μM Hypoxanthine	6.61
log10 compound concentration (M): -5, supplement / serum: 50 μM Hypoxanthine + 50 μM Thymidine	96.3
log10 compound concentration (M): -5, supplement / serum: 50 μM Thymidine	5.4
log10 compound concentration (M): -5, supplement / serum: No metabolite	6.17
log10 compound concentration (M): -5.47712, supplement / serum: 50 μM Hypoxanthine	7.87
log10 compound concentration (M): -5.47712, supplement / serum: 50 μM Hypoxanthine + 50 μM Thymidine	107
log10 compound concentration (M): -5.47712, supplement / serum: 50 μM Thymidine	6.85
log10 compound concentration (M): -5.47712, supplement / serum: No metabolite	6.28
log10 compound concentration (M): -5.95424, supplement / serum: 50 μM Hypoxanthine	7.98
log10 compound concentration (M): -5.95424, supplement / serum: 50 μM Hypoxanthine + 50 μM Thymidine	94.9
log10 compound concentration (M): -5.95424, supplement / serum: 50 μM Thymidine	6.27
log10 compound concentration (M): -5.95424, supplement / serum: No metabolite	6.16
log10 compound concentration (M): -6.43136, supplement / serum: 50 μM Hypoxanthine	8.16
log10 compound concentration (M): -6.43136, supplement / serum: 50 μM Hypoxanthine + 50 μM Thymidine	94.1
log10 compound concentration (M): -6.43136, supplement / serum: 50 μM Thymidine	6.32
log10 compound concentration (M): -6.43136, supplement / serum: No metabolite	6.68
log10 compound concentration (M): -6.90849, supplement / serum: 50 μM Hypoxanthine	8.56
log10 compound concentration (M): -6.90849, supplement / serum: 50 μM Hypoxanthine + 50 μM Thymidine	98
log10 compound concentration (M): -6.90849, supplement / serum: 50 μM Thymidine	6.77
log10 compound concentration (M): -6.90849, supplement / serum: No metabolite	8.09
log10 compound concentration (M): -7.38561, supplement / serum: 50 μM Hypoxanthine	22.8
log10 compound concentration (M): -7.38561, supplement / serum: 50 μM Hypoxanthine + 50 μM Thymidine	98.9
log10 compound concentration (M): -7.38561, supplement / serum: 50 μM Thymidine	8.11
log10 compound concentration (M): -7.38561, supplement / serum: No metabolite	7.17
log10 compound concentration (M): -7.86273, supplement / serum: 50 μM Hypoxanthine	76.7
log10 compound concentration (M): -7.86273, supplement / serum: 50 μM Hypoxanthine + 50 μM Thymidine	102
log10 compound concentration (M): -7.86273, supplement / serum: 50 μM Thymidine	24.3
log10 compound concentration (M): -7.86273, supplement / serum: No metabolite	14.3
log10 compound concentration (M): -8.33985, supplement / serum: 50 μM Hypoxanthine	95.5
log10 compound concentration (M): -8.33985, supplement / serum: 50 μM Hypoxanthine + 50 μM Thymidine	96.4
log10 compound concentration (M): -8.33985, supplement / serum: 50 μM Thymidine	88.2
log10 compound concentration (M): -8.33985, supplement / serum: No metabolite	90
log10 compound concentration (M): -8.81697, supplement / serum: 50 μM Hypoxanthine	93
log10 compound concentration (M): -8.81697, supplement / serum: 50 μM Hypoxanthine + 50 μM Thymidine	97.4
log10 compound concentration (M): -8.81697, supplement / serum: 50 μM Thymidine	86.7
log10 compound concentration (M): -8.81697, supplement / serum: No metabolite	96.8
log10 compound concentration (M): -9.29409, supplement / serum: 50 μM Hypoxanthine	98.8
log10 compound concentration (M): -9.29409, supplement / serum: 50 μM Thymidine	97.4
log10 compound concentration (M): -9.29409, supplement / serum: No metabolite	85.6
log10 compound concentration (M): -9.77121, supplement / serum: 50 μM Hypoxanthine	93.1
log10 compound concentration (M): -9.77121, supplement / serum: 50 μM Hypoxanthine + 50 μM Thymidine	98.4
log10 compound concentration (M): -9.77121, supplement / serum: 50 μM Thymidine	101
log10 compound concentration (M): -9.77121, supplement / serum: No metabolite	101

cell viability [%], [1]
Conditions	0.001 µM	0.00278 µM
metabolite supplement: 50uM thymidine + 250uM folic acid	98.9	99.6
metabolite supplement: 250uM folic acid	99.3	100
